Data published in the supplement of paper PMC11417369.
The list shows a part of the results.

test system: PfHDP1 homeodomain (GST-tagged); assay: gcPBM binding intensity (ln(normalized median fluorescence intensity)); higher = stronger DNA binding
Method in brief: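 Plasmodium falciparum DNA-binding domains carrying a GST tag were expressed in E. coli and applied for 1 h, at about 25 μg on average, to an Agilent 4 × 180k array. The array held primer-extended double-stranded 36-bp intergenic genomic probes together with negative controls, and binding took place in 1× PBS with 1% milk, 0.2 mg/ml BSA, 0.5% salmon testes DNA and 0.03% Triton X-100. An Alexa488 anti-GST antibody detected bound protein, and the array was scanned at 488 nm. Binding intensity is taken as the highest Masliner-normalised natural-log median intensity across replicate spots of either probe orientation.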

Row | Sequence | gcPBM binding intensity (ln)
1 | ACAAATATGAGAAATTGTACATATAATAAAATAGTA [XGTACX_site2573] | 6.74
2 | GATATGATATGATATGCATGTAACAAATTTTTTTAA [TGCATGCA_site268] | 6.98
3 | AAAAAAAAATATATATATATATATATATTTATGTAT [GTGCAC_negctrl_site483] | 6.92
4 | ATATTAATTTCTTATGCATGTTCTACCAAATTGTAT [TGCATGCA_site38] | 7.09
5 | AAAAAAAATAAAAATAGTACTCAAAAAATTATGAAT [XGTACX_site3073] | 6.4
6 | TTCTTCAATAATAAGTGTACATATGCATACATTATA [XGTACX_site1502] | 6.81
7 | AATTAAAAAATTTATGCACACTTTAAAAAAAAAAAA [CACACA_site5962] | 9.66
8 | ATAATAAAATAAGAAGCACACAAATATTATATATAA [CACACA_site9319] | 6.72
9 | TTTTTTTTTTTTTTAACACACATATATATATTTTTC [CACACA_site1922] | 6.67
10 | CCTCATCCACTATGCACACAAAAAAGAAATACACTA [CACACA_site3422] | 9.52
11 | TAATGGATTATACGTGCACACATATATACAAATAAA [CACACA_site8116] | 9.65
12 | TTATTTATTTTTATATGTACACAAAAAAAAAAAAAA [XGTACX_site1459] | 6.53
13 | AATATATATAACGTTGGTACACAAAAATTATTAAAT [XGTACX_site8572] | 6.72
14 | AATGTATTTATTTTTTGTACATATCGTGTGTGTATT [XGTACX_site1009] | 6.63
15 | TTCTATTATGTGACTCAATTCTTCATGGGTGTATAA [TGCATGCA_negctrl_site140] | 6.6
16 | TTTGGAATATAATATTGTACATATTATATATATATA [XGTACX_site3187] | 8.53
17 | TTTTTTTTTAAATATACACACACATTTATACATATA [CACACA_site9122] | 6.76
18 | TATACATATGTATGCACACATACATACACATAGAAT [CACACA_site3480] | 9.51
19 | TATATTATTTAAAAAGTGCAGTTACAAGATGAACCT [GTGCAC_site9641] | 6.36
20 | GGAAAGACATTACACAGTACCCAGGAAATCTACGGA [XGTACX_site2002] | 6.25
21 | TAATATTTATTCTATTGTACATAAAATATATATATA [XGTACX_site7132] | 8.12
22 | ATAAATAAAAAACACACACACACACCCAAAAAAAAA [CACACA_site2624] | 6.79

Row | Sequence | gcPBM binding intensity (ln)
23 | ATTATATATGTATAAATATGCTATATATATATATAT [GTGCAC_negctrl_site430] | 9.42
24 | TCAACATTTAAAAATAGTACTCATAAACCTTTCGAA [XGTACX_site4111] | 6.03
25 | AATTATATTAATTCTTCATTACATTTTAAAATATTA [XGTACX_negctrl_site510] | 6.35
26 | AATACGCATTTTAGTACACACTTAAAAAGTTATTTT [CACACA_site7401] | 6.21
27 | TTATAATATAAAAATAAATAAATAAATAAATAAATA [CACACA_negctrl_site1587] | 6.49
28 | TGCTATTATTTATGTACACACCAATTTATTTATAAT [CACACA_site6029] | 7.13
29 | TTCGTTATATTTTGATGTACTGATTCATATATATAT [XGTACX_site1835] | 8.09
30 | ATTGATTTTTAATATACACACATAAGGACCACAAAA [CACACA_site4344] | 7.03
31 | AGAGAATATTTCCACACATGCAAATGTTATATGTAA [TGCATGCA_site282] | 6.57
32 | ATTCGGATATATATCACACATAACTTTAATAATATA [CACACA_site5720] | 6.52
33 | ATTATAATAGTTAAATGTACACACTAACTACATGGA [XGTACX_site6918] | 6.5
34 | AATTAAAAATTCAAGTGTACTTTTATATTATTATAC [XGTACX_site4106] | 5.98
35 | TAAATAGCCAAACGCACACCCACAAAAAAAAAAAAA [CACACA_site1554] | 6.51
36 | TCATATTTGCCTTTTTATTTAGAACACAAAAAAAAA [CACACA_negctrl_site1152] | 6.17
37 | TATATATAATATACATGTACAAATGTATTTAAAAAT [XGTACX_site6090] | 6.49
38 | CAAAAAAAGAAAGCTACACACATTTATGTGCTATAT [CACACA_site2777] | 6.72
39 | AGAAAATACACGCATACACACACACCCACCCACATA [CACACA_site8115] | 7.25
40 | TATCTCTCTTTCTGCTGTACATAAAAATTATATAAT [XGTACX_site5961] | 7.19
41 | AACATATTTTTAAATACACACACATAAAAAAAAAAA [CACACA_site8279] | 6.75
42 | AAAATAACGAGTCAAACACACATATATATATATATA [CACACA_site2039] | 9.39
43 | AGCATAAACAATTTTTGAAAAAATATACACTCATAG [CACACA_negctrl_site890] | 6.62
44 | TATATATATATATACACACACACAAAAAAAAAAAAA [CACACA_site1505] | 9.2

Row | Sequence | gcPBM binding intensity (ln)
45 | TCTACAAGGCTTGATCGTACAATTTGAATGTATTTG [XGTACX_site7698] | 6.29
46 | CTCAACATATACGTAACACACATATATATATATATA [CACACA_site3838] | 9.39
47 | TATGCAAGGAACCACACACACACACCCAAATGTATA [CACACA_site750] | 6.93
48 | AGATTATATATATGTATATATGTATATATTTATATA [CACACA_negctrl_site1797] | 6.12
49 | TAAATATTAACAATCGCACACATATTATTTTTCCAA [CACACA_site1626] | 6.84
50 | GAATATATATTCATATGTACACAATTTATGTATTAT [XGTACX_site4719] | 6.56
51 | AAGGTAAACAGACACACACACATACAAAAAAAAAAA [CACACA_site3768] | 6.67
52 | AAAAAGAAAAAATATATTCGTCTATTATAAACAATA [CACACA_negctrl_site648] | 6
53 | GAATATAAACCTATTACACACATCTATATGTACATT [CACACA_site1914] | 6.88
54 | CTATATCATTTTCTAGCACACACATTGTTATTACCT [CACACA_site8204] | 7.16
55 | ATTTTTTTTATTATTACACACATATAACAAAAAAAT [CACACA_site6934] | 6.71
56 | TTTTTTATGCTAACTTCTTTTTCCTTATAAAATTGG [TGCATGCA_negctrl_site598] | 6.7
57 | AACACATACAGATATGCACACATTTTATTCCATTAT [CACACA_site5565] | 9.92
58 | TATTTATAAATGAACACACACGCAATTTGAATCGAA [CACACA_site3371] | 7.09
59 | ATATATATATTATATGCACACTTATATTTCATTAGA [CACACA_site5439] | 10.3
60 | TTTTTATATTTCAACATATCACAATTTTATATATCT [CACACA_negctrl_site178] | 6.43
61 | TTTTGTTTTTGTAGAGTGCATAAAGAAGATATGTAT | 8.75
62 | TGGAAACAATGACACACACACAAAAAAAAAAAAAAA [CACACA_site7494] | 6.22
63 | GTAGGGGAAAAAAAAACACACAAAAAACAACAGATC [CACACA_site1187] | 7.01
64 | TTATCTCTACAAAGTGCACACACGTAAAAACATATA [CACACA_site3957] | 8.98
65 | ATAATAATATTTCTATGTACTTATTTTATGTATTAG [XGTACX_site1747] | 6.54
66 | AAAAATTAAAATATAACTAATTAATTTGTATTCATT [CACACA_negctrl_site1633] | 5.77

Row | Sequence | gcPBM binding intensity (ln)
67 | TATAAATACTTAGAAACACACAAAAATATTTTATAA [CACACA_site7259] | 6.55
68 | TGTAATTGTTTAAAGGGTACATATATCAGATGTCTT [XGTACX_site5877] | 6.17
69 | ATAATTCTTTTACTGTGTACATATTATCACTTATTT [XGTACX_site2456] | 7.25
70 | CATTATGTTGTAAATACACACATACAGATACATACA [CACACA_site4565] | 6.61
71 | ATATGCGTTTGCAAATGTACATATTATTTATATATA [XGTACX_site7128] | 8.86
72 | TAAAGGCAAACAAACACACACACATAAATACAGATA [CACACA_site5204] | 7.04
73 | TTTTTTGGTTTTCATGCACACAATTTATAAATCTAT [CACACA_site3106] | 9.76
74 | ATTTTATAACATTCATGTACACATTTCATTTATTTG [XGTACX_site3028] | 6.61
75 | CATATAAATATATATACACACACACCGTAATACATA [CACACA_site9158] | 6.88
76 | TTTTAATATTTTAAGAGTACAGAAATATATAATATG [XGTACX_site4955] | 6.61
77 | AGAGACACTTTTTATTGTACAAGAGGAGGTTACCTT [XGTACX_site8768] | 6.41
78 | ATATAATGGACCATAGTGCATAAAAATAACAAAAAA [GTGCAC_site9558] | 8.62
79 | TTTTTATATTTTATAGTGCAAAAACTTACATAAAAT | 9.18
80 | TGGAAATATATATATATATATACATATATATATAGC [XGTACX_negctrl_site107] | 6.63
81 | TATTTTTTTTCTTTATTTATAACGCTCAATATATTC [GTGCAC_negctrl_site265] | 6.78
82 | AATACCATAATCAATGCACACATAACAAAATATTAT [CACACA_site8873] | 9.19
83 | TACGAAAAAAAAAAAAAAAAAAAAAAACACAAAAAA [CACACA_negctrl_site1643] | 6.01
84 | ACAGTATCAATATGGATAAAAATGTCCATATGCCTG [TGCATGCA_negctrl_site482] | 5.89
85 | TATATAACATATAACACACATACTTAGTATTACATA [CACACA_site3099] | 6.5
86 | TGTTAATAGAAATACGTGCACACTAAAGGGAAAACA [CACACA_site1485] | 9.43
87 | TATGAAGAAAAGAATTGTACGATGTTTATTTTGTAT [XGTACX_site8614] | 6.13
88 | TTGTTATCTACCTGTAGTACATATATTATGTAATAT [XGTACX_site735] | 6.42
